Experimental data taken from PubChem BioAssay AID1745845 (National Center for Advancing Translational Sciences (NCATS), 2022).
Several values for one entry are separate records, joined by “and”; a condition that tells them apart may be missing. Identical values can stand only once. In all, about 360,000 compounds went through this assay and about 2,600 (0.72%) were called active. Inconclusive means that the source gave no clear call. Such entries were picked first, then a sample of the others. Calls follow the shape of the dose curve; as a rule, active = well fitted inhibition curve with a large enough effect; inconclusive = small, poorly fitted or top-dose-only effect; inactive = no such curve, though single readings can be large or run the other way. A potency beside an inconclusive call is a rough fit, not a confirmed value.

experiment: Primary qHTS for Inhibitors of ATXN expression; conditions: HEK-293 ATXN2-luciferase reporter, luminescence, 24 h; activity change, negative = inhibition: at 57 µM (top of the series); also: nearly all actives have a fitted effect of over 55% in size
Method in brief: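 ATXN2-luciferase reporter cells (luciferase flanked by upstream and downstream ATXN2 gene portions) were treated 24 h at 37 °C with compounds at up to 57 uM. SteadyGlo luminescence gave expression; GF-AFC fluorescence gave viability.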
% is scaled to controls: 0 for no effect and ±100 for the full control effect; potency is read from the fitted curve at half-maximal effect; tags tell the direction and shape of the fitted curve.

Row | Compound | Potency | activity change, negative = inhibition
1 | COc1ccc(S(=O)(=O)N2CCCCC2)cc1C(=O)Nc1cc(C)on1 | inconclusive: 3.16 µM [inhibitor, partial curve, poor fit] | –
2 | CCCCN(C(=O)Oc1ccccc1)C1CCS(=O)(=O)C1 (stereo not given) | inconclusive: 1.19 µM [inhibitor, partial curve, poor fit] | –
3 | O=S(=O)(CCN(CCS(=O)(=O)C(F)(F)F)CC1CCCO1)C(F)(F)F (stereo not given) | inconclusive: 39.8 µM [inhibitor, single point] | –
4 | COC(=O)c1ccccc1NC(=O)Nc1ccc(C(=O)N2CCCC2)cc1 | inconclusive: 25.1 µM [inhibitor, single point] | –
5 | Cc1cccc(NC(=O)CSc2nc3ccc(NC(=O)COc4ccc(Cl)cc4)cc3s2)c1 | inconclusive: 11.2 µM [inhibitor, partial curve] | –
6 | CCCc1nc(N2CCN(S(=O)(=O)c3ccc(Cl)cc3)CC2)c2c(C)c(C)sc2n1 | – | inactive: -20.6%
7 | COc1ccc(N=Nc2ccc(N)nc2N)cc1 | – | inactive: 49.5%
8 | C[C@H](NC(=O)c1nc[nH]c1C(=O)NC(c1ccccc1)c1ccccc1)C(=O)OC(C)(C)C | inconclusive: 39.8 µM [inhibitor, single point] | –
9 | C/C(=N\Nc1ncnc2sc(C)c(C)c12)c1ccccn1 | active: 0.282 µM | –
10 | Nc1nc(Cl)cc(N2CCC(c3cc(-c4ccc(Cl)cc4)n[nH]3)CC2)n1 | active: 25.1 µM | –
11 | CN(C)CC/C=C1/c2cc(F)ccc2Sc2ccc(Cl)cc21 | inconclusive: 15.8 µM [inhibitor, partial curve, poor fit] | –
12 | CCOC(=O)CC(NC(=O)CCc1c(C)nc2c(-c3ccccc3)c(C)nn2c1C)c1ccc(C)cc1 (stereo not given) | inconclusive: 39.8 µM [inhibitor, single point] | –
13 | Cc1ccc(-n2nnc(-c3nsc(NC(=O)c4ccccc4C)n3)c2C)cc1Cl | inconclusive: 10 µM [inhibitor, partial curve] | –
14 | O=C(Nc1ccc(F)cc1)N1CCN(c2ccc3nnc(-c4ccc(F)cc4)n3n2)CC1 | inconclusive: 25.1 µM [inhibitor, partial curve] and inconclusive: 31.6 µM [inhibitor, single point] | –
15 | COc1ccc(-c2csc(NC(=O)c3ccccc3NS(=O)(=O)c3ccc(F)c(F)c3)n2)cc1 | active: 7.08 µM | –
16 | O=C(NC1CCCCCC1)c1ccc(-n2cnnc2)cc1 | – | inactive: 12.3%
17 | O=c1c(N2CCN(c3cccc(C(F)(F)F)c3)CC2)csc2ccccc12 | inconclusive: 39.8 µM [inhibitor, single point] | –
18 | C=CCC[C@H](Cc1ccc(F)cc1)C(=O)OC[C@H](Cc1c[nH]c2ccccc12)NC(=O)[C@H](CC=C)CC(=O)N(CCO)Cc1ccccc1 | inconclusive: 39.8 µM [inhibitor, single point] | –
19 | Cc1ccnc2nc(C(=O)Nc3ccc4c(c3)OCO4)nn12 | inconclusive: 25.1 µM [inhibitor, single point] | –
20 | O=C(Nc1ccc(OCC(F)(F)C(F)F)c(C(F)(F)F)c1)c1ccccc1 | inconclusive: 39.8 µM [inhibitor, single point] | –
21 | CC(=O)N1c2ccc(S(=O)(=O)NCC3CCC(C(=O)Nc4cc(C)ccn4)CC3)cc2CC1C (stereo not given) | inconclusive: 25.1 µM [inhibitor, single point] | –
22 | Cc1ccc(CN2CCN(CCCn3cnc4c(OCc5ccccc5)ncnc43)CC2)cc1 | inconclusive: 12.6 µM [inhibitor, partial curve, poor fit] | –

Row | Compound | Potency | activity change, negative = inhibition
23 | CCCC(=O)Nc1ccc(NC(=O)CCc2ccccc2)cn1 | – | inactive: -3.74%
24 | O=C(Nc1cccc(O)c1)c1cc(-c2ccc3c(c2)OCO3)on1 | inconclusive: 39.8 µM [inhibitor, single point] | –
25 | CC(C)=C[C@H]1C[C@H](C)[C@H]2CC[C@H](C)c3c(O[C@@H]4OC[C@@H](O)[C@H](O)C4O)c(O)c(C)c1c32 (stereo not given in full) | inconclusive: 39.8 µM [inhibitor, single point] | –
26 | CC(C)[C@H](NC(=O)c1ccc(C(C)(C)C)cc1)C(=O)N1CCN(Cc2ccc3c(c2)OCO3)CC1 | inconclusive: 17.8 µM [inhibitor, partial curve] | –
27 | CCOC(=O)C1CCN(C(=O)COC(=O)/C=C/c2ccccc2)CC1 | – | inactive: -12.1%
28 | O=C(NCCc1ccccc1)c1ccc2nccnc2c1 | inconclusive: 12.6 µM [inhibitor, partial curve, poor fit] | –
29 | N#Cc1ccccc1S(=O)(=O)N1CCN(S(=O)(=O)c2ccc(Br)c(C(=O)O)c2)CC1 | inconclusive: 15.8 µM [inhibitor, single point] | –
30 | CC(=O)Nc1ccc(S[C@@H](CCN2CC[C@H](C(C)(C)C)CCC2=O)c2ccccc2)cc1 | inconclusive: 39.8 µM [inhibitor, single point] | –
31 | Cc1cccc(C)c1NCc1n[nH]c(=S)n1-c1ccccc1 | – | inactive: -10.4%
32 | Clc1ccc(C[n+]2cc(-c3ccccc3)n3c2CCCCC3)c(Cl)c1 | inconclusive: 5.97 µM [inhibitor, partial curve, poor fit] | –
33 | COc1cc(NC(=O)c2cc(Cl)ccc2Cl)ccc1NC(=O)c1cc2ccccc2o1 | active: 31.6 µM | –
34 | COc1ccc(NC(=O)C2CCN(C(=O)c3ccccc3)CC2)cc1OC | – | inactive: 2.32%
35 | CCOC(=O)/C(=N\Nc1ncnc2ccccc12)c1ccc(C)cc1 | – | inactive: -31.6%
36 | O=C(NCCc1csc(-c2ccc(Cl)cc2)n1)c1ccco1 | inconclusive: 31.6 µM [inhibitor, single point] and active: 14.1 µM | –
37 | O=C(Nc1ccc(N2CCN(c3ccc(C(F)(F)F)cn3)CC2)nc1)c1cccs1 | inconclusive: 3.98 µM [inhibitor, partial curve, poor fit] | –
38 | O=C(c1ccccc1)C1CN(Cc2ccccc2)CCC1(O)c1ccccc1 (stereo not given) | – | inactive: 1.73%
39 | CCCCc1c(-c2ccccc2OC)ncn1C1CCCC1 | inconclusive: 39.8 µM [inhibitor, single point] | –
40 | CCCn1c(=N)n(CC(O)COc2cccc(C)c2)c2ccccc21 (stereo not given) | inconclusive: 14.1 µM [inhibitor, partial curve] | –
41 | O=C(Oc1cc(Cl)ccc1Cl)c1ccc(N2CCOCC2)c([N+](=O)[O-])c1 | – | inactive: -7.27%
42 | Cc1nc2ncnn2c(N2CCCC(C(=O)Nc3ccc4c(c3)CCC4)C2)c1C (stereo not given) | inconclusive: 14.1 µM [inhibitor, partial curve] | –
43 | COc1ccc(CC(=O)NNC(=O)c2ccc(Br)s2)cc1OC | inconclusive: 14.1 µM [inhibitor, partial curve] | –
44 | COc1ccc([N+](=O)[O-])cc1NC(=O)C(C)N1CCCC1 (stereo not given) | – | inactive: -6.01%

Row | Compound | Potency | activity change, negative = inhibition
45 | O=C(NCCOc1ccc(F)cc1)C1CCC(=O)N(CCc2ccccn2)C1 (stereo not given) | – | inactive: -3.38%
46 | CCOC1=CC2=C(C(=O)C(Cl)=CC2=O)[C@@H]2CN(S(=O)(=O)c3ccc(C)cc3)[C@@H](c3ccccc3)[C@H]12 | inconclusive: 39.8 µM [inhibitor, single point] | –
47 | COc1ccc(C(=O)Nn2c(SCC(=O)NCc3ccco3)nc3ccccc3c2=O)cc1 | inconclusive: 7.08 µM [inhibitor, partial curve, poor fit] | –
48 | Cn1nnnc1SCC(=O)Nc1cc(S(=O)(=O)N2CCCCC2)ccc1Cl | – | inactive: -21.4%
49 | COc1cc(/C=C2\C(=O)N(c3ccc(NC(C)=O)cc3)N=C2c2ccccc2)ccc1O | inconclusive: 5.32 µM [inhibitor, full curve, poor fit] | –
50 | COC(=O)c1cc(CNC(=O)c2ccc(N3CCCC3)c([N+](=O)[O-])c2)ccc1OC | – | inactive: 8.13%
51 | CC(=O)c1ccc(S(=O)(=O)N2CCN(c3nc4c(C)c(C)ccc4cc3C#N)CC2)cc1 | inconclusive: 39.8 µM [inhibitor, partial curve, poor fit] | –
52 | OC1(c2ccc(Br)cc2)CCNCC1 | inconclusive: 25.1 µM [inhibitor, single point] | –
53 | Cc1c(Cl)cccc1NC(=O)c1cc(-c2cccc(Cl)c2)on1 | – | inactive: -9.83%
54 | Cc1ccc(-c2cc(C(=O)NCCCN3CCOCC3)no2)cc1 | inconclusive: 14.1 µM [inhibitor, partial curve] | –
55 | O=c1c(Cl)c(NCCCO)cnn1-c1nc2ccccc2[nH]1 | inconclusive: 39.8 µM [inhibitor, single point] | –
56 | Cc1ccc(NC(=O)c2cc(S(=O)(=O)N3CCCCC3)cs2)cc1 | inconclusive: 39.8 µM [inhibitor, single point] | –
57 | COc1ccc(/C=C2\SC(=S)N(CC(=O)NC3C=CS(=O)(=O)C3)C2=O)cc1 (stereo not given) | – | inactive: 1.97%
58 | c1csc(C2Nc3cccc4cccc(c34)N2)c1 | – | inactive: -9.81%
59 | COC(=O)c1cn(C(=O)/C=C/c2ccc(OC)c(OC)c2)c2ccccc12 | inconclusive: 39.8 µM [inhibitor, single point] | –
60 | Cc1cccc(OCCn2c(SCC(N)=O)nc3ccccc32)c1 | – | inactive: -7.79%
61 | C=C(C)CSc1nc2c(c(=O)[nH]c(=O)n2C)n1CCC(C)C | inconclusive: 31.6 µM [inhibitor, partial curve, poor fit] | –
62 | Cc1ccc(CN2CCC(CNC(=O)Nc3ccccc3F)CC2)cc1 | inactive | –
63 | CCOC(=O)c1c(NC(=O)Nc2ccc(F)cc2)sc2c1CCN(C)C2 | inconclusive: 11.2 µM [inhibitor, partial curve, poor fit] | –
64 | COc1cccc(N=Nc2c(N)[nH]n3c(=O)cc(-c4ccccc4)nc23)c1 | inconclusive: 17.8 µM [inhibitor, partial curve, poor fit] | –
65 | O=c1c2ccccc2ncn1-c1ccc(Cl)cc1[N+](=O)[O-] | inconclusive: 0.597 µM [inhibitor, full curve, poor fit] | –
